Assay results taken from PMC4336329 (PLoS ONE, 2015).
The whole screen tested about 310,000 compounds, of which about 14,000 (4.5%) showed an effect of 50% or more. Effects have a minus sign here. The list shows a part of the results.

molecular target: human ether-à-go-go-related gene (hERG) potassium channel (human, UniProt Q12809); experiment: primary screen, population patch clamp on CHO cells stably expressing hERG
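Also: peak tail current of the secondary pulse compared with the same well before compound.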

human ether-à-go-go-related gene (hERG) potassium channel, sequence (Q12809 whole entry, looked up): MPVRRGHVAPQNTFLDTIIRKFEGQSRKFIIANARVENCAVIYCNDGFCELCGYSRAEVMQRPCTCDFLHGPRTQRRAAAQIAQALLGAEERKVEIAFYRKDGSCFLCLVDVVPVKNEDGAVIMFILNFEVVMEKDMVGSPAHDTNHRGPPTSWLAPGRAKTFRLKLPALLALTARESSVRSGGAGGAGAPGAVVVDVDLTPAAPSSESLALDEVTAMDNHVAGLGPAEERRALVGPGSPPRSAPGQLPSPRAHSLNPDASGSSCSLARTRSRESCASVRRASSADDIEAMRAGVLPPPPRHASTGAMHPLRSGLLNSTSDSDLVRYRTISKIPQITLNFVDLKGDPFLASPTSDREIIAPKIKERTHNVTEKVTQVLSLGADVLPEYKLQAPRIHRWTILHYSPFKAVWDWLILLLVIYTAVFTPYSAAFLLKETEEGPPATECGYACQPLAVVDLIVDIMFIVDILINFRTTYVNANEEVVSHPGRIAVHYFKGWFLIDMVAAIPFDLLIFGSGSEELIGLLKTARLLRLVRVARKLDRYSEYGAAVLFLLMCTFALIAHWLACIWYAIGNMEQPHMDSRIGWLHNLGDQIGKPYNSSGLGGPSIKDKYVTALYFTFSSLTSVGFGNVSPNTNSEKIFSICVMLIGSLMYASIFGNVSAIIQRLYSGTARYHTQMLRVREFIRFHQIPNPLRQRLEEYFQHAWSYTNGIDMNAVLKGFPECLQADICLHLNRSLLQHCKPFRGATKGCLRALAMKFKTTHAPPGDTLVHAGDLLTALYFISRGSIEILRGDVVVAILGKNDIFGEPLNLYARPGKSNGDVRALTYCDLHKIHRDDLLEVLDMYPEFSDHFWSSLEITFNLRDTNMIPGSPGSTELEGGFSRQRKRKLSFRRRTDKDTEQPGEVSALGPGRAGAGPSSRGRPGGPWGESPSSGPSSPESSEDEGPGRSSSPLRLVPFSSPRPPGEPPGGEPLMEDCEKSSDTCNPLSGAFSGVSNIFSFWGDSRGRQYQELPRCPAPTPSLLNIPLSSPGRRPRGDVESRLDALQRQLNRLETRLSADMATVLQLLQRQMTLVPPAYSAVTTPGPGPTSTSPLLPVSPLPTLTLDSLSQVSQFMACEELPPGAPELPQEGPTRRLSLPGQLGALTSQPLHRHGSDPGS

SMILES	hERG current change (%, negative = inhibition) at 10uM [%]
COCc1cc(C)nc(N)c1C#N	13.8
Oc1ccc(/C=N/N2CCN(C3c4ccccc4-c4ccccc43)CC2)c(O)c1	11
O=C(COC(=O)c1ccc([N+](=O)[O-])cc1Cl)NC(=O)c1ccccc1	6.87
O=C(CN1CCCC1)Nc1cc(F)ccc1F	-13.3
CCC(C(=O)OCC(=O)Nc1cccc(S(=O)(=O)NC2=NCCCCC2)c1)c1ccccc1 (stereo not drawn)	1.92
CCC(OC(=O)c1ccco1)C(=O)NC1CCCC1 (stereo not drawn)	11.1
CCC1(OC(=O)c2ccccc2)CC(C)N(C)CC1C.Cl (stereo not drawn)	-7.85
C[C@]12CC[C@@H](O)C[C@H]1CC[C@@H]1[C@@H]2CC[C@]2(C)C(=O)CC[C@@H]12	-3.43
COc1ccccc1OCCCC(=O)NC(C)c1ccccc1 (stereo not drawn)	-0.417
CC(C)CCNC(=O)CCc1nnc2n(CCCOC(C)C)c(=O)c3ccccc3n12	-26.7
O=C(NNc1ncnc2ccccc12)c1cccc(Cl)c1	-17.1
COc1cc(NC(=S)NCc2ccc(S(N)(=O)=O)cc2)c(OC)cc1Cl	-2.4
CC(=O)C1C(c2ccc(Cl)cc2)c2c(n[nH]c2C)CC1(C)O (stereo not drawn)	33.4
CC(C)n1cc(C(=O)N(CC(=O)NC2CCCC2)Cc2ccccc2)cn1	-0.857
CN(CC(=O)NCCCc1ccccc1)S(=O)(=O)c1ccc(Br)cc1	-7.88
CCOc1ccccc1N1CCN(C(=O)c2ccccc2OCc2c(C)noc2C)CC1	-12.4
COC(=O)Nc1ccc(S(=O)(=O)N2CCC(C)CC2)cc1	-7.74
Cc1ccccc1S(=O)Cc1ccc(C(=O)NC2CCN(Cc3ccccc3)CC2)o1 (stereo not drawn)	-10.6
CCCc1cc(=O)[nH]c(SCC(=O)Nc2ccccc2C#N)n1	14.5
COc1ccc(C(=O)NC23CC4CC(CC(C4)C2)C3)cc1	12.2
Cc1cc(C)nc(NC(=O)c2ccccc2O)n1	18.3
Cn1nnnc1SCSc1nnnn1C	8.33
Cn1c(SCC(=O)c2ccc(F)cc2)nnc1-c1ccccn1	2.15

SMILES	hERG current change (%, negative = inhibition) at 10uM [%]
CC1CN(S(=O)(=O)c2ccccc2)CC(C)O1 (stereo not drawn)	-8.25
COc1cc2c(cc1OC)C(Nc1ccccc1)=NC(C)(C)C2	-19
Cc1nc(NC(=O)CSc2nnnn2Cc2ccccc2)sc1C	-4.31
COC(=O)c1cc(=O)[nH]c(SCc2cccc(C)c2)n1	17.2
O=C(CSc1nc2ccccc2o1)Nc1ccccc1	-1.11
O=C(NNC1=NCCC1)c1cccc(S(=O)(=O)N2CCCC2)c1	16.6
COc1cccc(C(C(=O)NCc2ccco2)N(C(=O)Cn2nnc3ccccc32)C2CC2)c1OC (stereo not drawn)	-5.46
CC(=O)/C(N)=N/Nc1cccc(Cl)c1	-0.164
COc1ccc(/C=C2\SC(N)=NC2=O)cc1Cl	9.84
COc1cc(OC)cc(C(=O)NC(c2ccccc2)c2ccccc2)c1	9.34
Cc1cc(=O)c2n(Cc3ccccc3Cl)nc[n+]2[nH]1.[Cl-]	-6.94
Cc1ccc(C(=O)n2cnnc2N)cc1	-1.12
COc1ccc(C(=O)Nc2nc(-c3cccs3)cs2)cc1	-9.51
CC(C)C/C(=N/O)c1cn(C)c2ccccc12	3.21
O=C(CCNC(=O)c1ccc([N+](=O)[O-])cc1)Nc1ccccc1N1CCCCC1	-34.9
CN(CCCNC(=O)C1CCC(=O)N1Cc1ccccc1Cl)c1ccccc1 (stereo not drawn)	18
O=C(NC(=S)Nc1ccccc1N1CCCCC1)c1ccco1	-10.6
Cc1ccc(S(=O)(=O)NCC(C)NS(=O)(=O)c2ccccc2[N+](=O)[O-])cc1 (stereo not drawn)	16.6
Cc1ccc2nc(C)c(C(=O)N/N=C/c3cccs3)n2c1	-9.33
Cc1ccc(Cl)cc1N1CCN(Cc2nc3c(c(=O)[nH]c(=O)n3C)n2CCc2ccccc2)CC1	6.63
Cc1[nH]c2ccc(CNS(=O)(=O)c3ccc(S(=O)(=O)N4CCOCC4)cc3)cc2c1C	-13.3
COC(=O)c1cc(C(=O)N2CCN(c3cccc(Cl)c3)CC2)cc([N+](=O)[O-])c1	-59
CCCCc1nc2sc3c(c2c(=O)[nH]1)CC(C)(C)OC3	8.11

SMILES	hERG current change (%, negative = inhibition) at 10uM [%]
O=C1CC(NCCc2ccccc2)C(=O)N1CCc1ccccc1 (stereo not drawn)	-2.44
COc1ccc(/C(C)=N/NC(=O)c2ccccc2OCc2ccccc2)c(OC)c1	11.2
COc1cccc(N2C(=O)c3ccncc3C2=O)c1	22
O=C(O)Cc1ccc(NC(=O)Nc2ccc(Br)cc2)cc1	12.9
COc1cc2c(cc1OC)C(C)N(C(=O)c1cc3c(C)cc(C)cc3[nH]1)CC2 (stereo not drawn)	5.78
COc1ccc(-c2csc(Nc3cccc(C)n3)n2)cc1	13.2
COc1cc(NC(=O)COc2c(C)cc(C)cc2[N+](=O)[O-])c(OC)cc1Cl	-0.303
COc1cc(OC)c(S(=O)(=O)Nc2ccccc2C(=O)O)cc1S(=O)(=O)Nc1ccccc1C(=O)O	-20.2
Cc1ccccc1OCC(=O)Nc1sc(C(=O)Nc2cccc(C)c2C)c(C)c1C#N	5.47
CCOC(=O)C1=NNC(C(=O)c2ccccc2)C1c1ccc(C)cc1 (stereo not drawn)	-16.3
Cc1c(N=C/C=C2\N(C)c3ccccc3C2(C)C)c(=O)n(-c2ccccc2)n1C	-53.7
Cc1cccc(CC(=O)NC2CCCCCC2)c1	3.96
O=C(/C=C/c1cccs1)N1CCN(c2ccccc2F)CC1	-36.1
CCOC(=O)C1=C(COC(=O)c2ccco2)NC(=O)NC1CC (stereo not drawn)	8.95
O=C(Nc1ccn(-c2ccccc2)n1)c1ccc(Cl)cc1	-8.56
CN(C)CCCN(C(=O)CCc1ccccc1)c1nc2ccc(F)cc2s1.Cl	-70.1
CCSc1ncc(Cl)c(C(=O)Nc2ccc(S(=O)(=O)Nc3onc(C)c3C)cc2)n1	4.3
COc1ccccc1CN1C(=O)c2ccccc2C1C(=O)NC1CCC(C)CC1 (stereo not drawn)	-12.2
CCC(=O)N1CCN(c2ccc(NC(=O)c3ccco3)cc2)CC1	9.27
O=c1c(Cc2ccccc2O)c(O)nc2n1CCCS2	7.27
Cn1c(=O)n(CC(N)=O)c(=O)c2c1nc1n2CCCN1Cc1ccccc1	14.8
Cc1ccnc(N2C(=O)c3ccccc3C2Nc2cccc(C)c2C)c1 (stereo not drawn)	13.1
C=CCNC(=O)C12CC3(C)CC(C)(CC(C)(C3)C1)C2	-11.8

SMILES	hERG current change (%, negative = inhibition) at 10uM [%]
Cc1cc(NC(=O)COC(=O)c2n[nH]c3ccccc23)no1	8.9
Cc1cc(C)c(C#N)c(SCc2nc3ccccc3c(=O)[nH]2)n1	9.18
CCOc1ccc(CC(C(=O)NN)C(=O)NN)cc1CN(C)C	10.2
C=CCNc1nnnc2c1sc1nc(N3CCOCC3)c3c(c12)CCCC3	9.26
CC(C)(C)c1cc(NC(=O)Nc2ccc(Cl)cc2Cl)no1	16.4
COc1ccc(C2C(C#N)=C(N)OC3=C2C(=O)CCC3)cc1Cn1cc([N+](=O)[O-])cn1 (stereo not drawn)	-10
CCN1C(=O)/C(=C\N(C(C)=O)c2ccccc2)OC1=S	3.96
O=C(O)CSCC(=O)N1N=C2/C(=C/c3ccccc3)CCCC2C1c1ccccc1 (stereo not drawn)	16.4
COC(=O)c1ccccc1Sc1c(/C=N/OCc2ccc(Cl)cc2)c(C(F)(F)F)nn1C	13.4
Cc1cc(-c2ccc(C)c(S(=O)(=O)NCc3cccc(Br)c3)c2)on1	-22.2
Cc1ccc(CN(C)C(=O)CN2C(=O)NC(c3ccccc3)(c3ccccc3)C2=O)c(C)c1	-14.1
CC1(c2ccc(OC(F)F)cc2)NC(=O)N(CC(=O)Nc2ccc3[nH]c(=O)[nH]c3c2)C1=O (stereo not drawn)	17.2
O=[N+]([O-])c1cc(/C=N/Nc2nc3ccccc3[nH]2)c(O)cc1O	7.86
CCC(C)c1ccccc1NC(=S)NC(=O)c1ccco1 (stereo not drawn)	-8.68
O=C(O)/C=C/C(=O)Nc1ccc(OC(F)(F)Cl)cc1	1.88
O=C(COC(=O)C12CC3CC(CC(Br)(C3)C1)C2)Nc1cccnc1Cl	-4.8
Cc1ccc(C)c2[nH]c(=O)c(CCNC(=O)c3cccs3)cc12	-10.9
Cc1nnc(SCC2=C(C(=O)O)N3C(=O)C(NC(=O)Cn4nc(C(F)F)cc4C)C3SC2)s1 (stereo not drawn)	13.1
CCC1(C)Cc2nc(Cl)c(C#N)cc2CO1 (stereo not drawn)	-2.38
CC1CCCCN1C(=O)CNCc1ccc(F)cc1.O=C(O)C(=O)O (stereo not drawn)	4.38
F[B-](F)(F)F.OCC[NH+]=c1cc(-c2ccccc2)oc2ccc(Cl)cc12	-71.3
